# Test results published in PubChem BioAssay AID1347073 (National Center for Advancing Translational Sciences (NCATS), 2019).
# The campaign covered roughly 45,000 compounds. About 200 (0.44%) were called active. Inconclusive results (about 7%) are left out. Calls come from the whole dose curve; as a rule, active = well fitted activation curve with a large enough effect; inconclusive = small, poorly fitted or top-dose-only effect; inactive = no such curve, though single readings can be large or run the other way. Some of the results follow.
# Experiment: qHTS of TDP-43 Inhibitors: NCGC Sytravon Library Screen; note: 0% is about no effect; nearly all actives have a fitted effect of over 55% in size
# Settings: yeast TDP-43 toxicity rescue, BacTiter-Glo growth, 24 h; series mostly up to 46.1 µM; growth rescue (activation): at the top concentration
# Outline: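 TDP-43-expressing yeast, pregrown in raffinose, seeded at OD600 0.02 in galactose medium with compound for 24 hr at 30 deg C. Growth read by BacTiter-Glo luminescence, so rescue of toxicity appears as activation.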
row,SMILES,growth rescue (activation)
1,CCOC(=O)C1C(=O)NC(c2ccccc2)=NC1c1cccc(Br)c1 (centres undefined),inactive: -7.08%
2,O=C(CCCn1cc([N+](=O)[O-])cn1)Nc1ccc2c(c1)OCO2,inactive: -0.429%
3,Cc1cc(NC(=O)c2ccccc2[N+](=O)[O-])ccc1Br,inactive: 10.5%
4,COC(=O)c1ccc(C)c(NC(=O)c2ccc(Cl)c([N+](=O)[O-])c2)c1,inactive: 20.6%
5,Cc1cc(C)nc(Sc2ccc(C=O)cc2[N+](=O)[O-])n1,inactive: 2.07%
6,COc1ccc(/C=N/NC(=O)CNS(=O)(=O)c2ccc(C)cc2)cc1,inactive: 6.65%
7,S=c1[nH]nc(COc2ccccc2)n1/N=C/c1cccc(Br)c1,inactive: 3.01%
8,Clc1ccc(/C=N/Nc2ccccn2)cc1,inactive: 17.4%
9,Cc1ccc(CS(=O)(=O)c2nsc(C)c2C#N)cc1,inactive: 16.2%
10,O=C(NCCc1ccccc1Cl)C1CC(=O)N(C2CCCCC2)C1 (centres undefined),inactive: -0.591%
11,CCCOC1CCCN(Cc2cn(C)nc2-c2ccccc2F)C1 (centres undefined),inactive: -4.47%
12,CC1=C(CCN2CCN(C3CCCC3)C(CCO)C2)C(C)(C)CCC1 (centres undefined),inactive: 4.76%
13,CC1=NN(c2ccc(C)cc2)C(=O)/C1=C\c1ccc(Br)s1,inactive: 13.3%
14,COc1ccc(OCC(=O)OC2CCCN(C)C2)cc1 (centres undefined),inactive: 0.879%
15,Cc1ccc(CNC(=O)/C=C/c2c(Cl)cccc2Cl)cc1,inactive: 14.7%
16,C=CCN(C(=O)c1csnn1)C(C(=O)NC1CCCCC1)c1ccccc1 (centres undefined),inactive: -10.1%
17,O=C(CN1CCC(C(=O)c2ccc3c(c2)OCCO3)CC1)NCc1ccc(F)cc1,inactive: 11.1%
18,COc1cc(NC(=O)c2ccc3c(c2)OCCO3)ccc1NC(=O)c1ccco1,inactive: 9.96%
19,Cc1ccc(NN=C2c3ccccc3-c3ccccc32)cc1,inactive: 8.14%
20,CC(C)CC(N)c1csc(Nc2cc(Oc3ccccc3)ncn2)n1 (centres undefined),inactive: 14.4%
21,COC(=O)CCSc1cc([N+](=O)[O-])cc2c1c(C1OCCO1)nn2-c1ccccc1,inactive: 10.2%
22,N#C/C(C(=O)NCc1ccccc1)=C1/N=C(NC(=O)c2ccco2)c2ccccc21,inactive: 18.5%
23,CCCn1c(SCC(=O)N2CCN(CC)CC2)nc2c1c(=O)n(C)c(=O)n2C,inactive: -10.7%

row,SMILES,growth rescue (activation)
1,CCOC(=O)C1CCCN(C(=S)Nc2ccc(S(=O)(=O)N3CCOCC3)cc2)C1 (centres undefined),inactive: -3.84%
2,COc1ccc(C(=O)NNC(=O)C(=O)/C=C(\O)c2ccc(C)cc2)cc1,inactive: -28%
3,Cc1ccsc1CN(C)C(=O)c1ccc(Oc2ccccc2)cc1,inactive: -2.24%
4,CCc1nnc(NC(=O)CCC(=O)NCCc2ccc(OC)c(OC)c2)s1,inactive: -18.7%
5,CC1=C(C(=O)OC2CCCCC2)C(c2ccc(C)o2)C2=C(CCCC2=O)N1 (centres undefined),inactive: -17.6%
6,CC1CCN(C(=O)CSc2nnc3c(n2)[nH]c2ccc(F)cc23)CC1,inactive: -0.425%
7,C[C@@H]1CN(Cc2nc(-c3cnccn3)no2)C[C@H](C)O1,inactive: -4.31%
8,Cc1nn(C(C)C)c(C)c1CN1CCCC(C(=O)c2cccc(OC(C)C)c2)C1 (centres undefined),inactive: -2.52%
9,CC(C)(O)C1Cc2cc(/C=C/C(=O)O)c(O)cc2O1 (centres undefined),inactive: -93.3%
10,O=C(c1ccccc1)N1CCN(C(=O)c2nn3c(C(F)(F)F)cc(-c4ccco4)nc3c2Cl)CC1,inactive: -3.89%
11,CN1CCN(c2ncnc3c2ncn3[C@H]2CN(Cc3cccs3)C[C@@H](CO)O2)CC1,inactive: -3.02%
12,COc1ccc(C(=O)NNC(=O)c2ccncc2)cc1[N+](=O)[O-],inactive: -2.24%
13,O=c1[nH]nnc2c1sc1nc(N3CCOCC3)c3c(c12)CCCC3,inactive: 13.4%
14,COc1ccc(CCN2C(=O)NC(NC(=O)C(C)(C)C)(C(F)(F)F)C2=O)cc1OC (centres undefined),inactive: 12.6%
15,CN1CCN(C(=O)CSc2ccc(C(F)(F)F)cc2[N+](=O)[O-])CC1,inactive: -2.77%
16,O=C(OCc1cccc(C(F)(F)F)c1)c1ccc[nH]c1=O,inactive: -11.9%
17,O=C(O)c1cc(N/N=C/c2ccncc2)ccc1Cl,inactive: -14.4%
18,Cc1cc([N+](=O)[O-])nn1CC(=O)NCCCn1ccnc1,inactive: 15.6%
19,CC(=O)c1sc(=S)n(-c2ccccc2)c1C,inactive: 5.55%
20,COCCNC(=O)C(NC(=O)C1CCCCC1)C(C)C (centres undefined),inactive: 9.08%
21,Cc1ccc(C(=O)NNC(=O)CSc2nnc(C(C)C)n2C)cc1,inactive: 14.4%
22,CCc1noc(C)c1C(=O)OCC(=O)NCc1ccc(Cl)cc1,inactive: -10.6%
23,COc1ccccc1C(=O)Nc1onc(C)c1C#N,inactive: 26.2%

row,SMILES,growth rescue (activation)
1,CSc1ccc(C(O)c2ncc(-c3ccccc3Cl)[nH]2)cc1 (centres undefined),inactive: 4.62%
2,COc1ccc(OC)c(Nc2nc(-c3ccncc3)nc3ccccc23)c1,inactive: 13.1%
3,CCCCC(=O)N(c1ccc(C(=O)O)cc1)c1nc(-c2ccc(Cl)cc2)c(CC)s1,inactive: 3.52%
4,CC(C)(C)NCc1ccc(OCc2cccs2)cc1,inactive: 11.4%
5,CC(C(=O)OCC(=O)c1ccc([N+](=O)[O-])cc1)N1C(=O)C2C3C=CC(C3)C2C1=O (centres undefined),inactive: -9.9%
6,COc1ccccc1N1CCN(C(=O)c2cc3n(n2)C(C(F)(F)F)CC(c2ccco2)N3)CC1 (centres undefined),inactive: -21.5%
7,Cn1c(=O)c2c(n(Cc3ccccc3)c1=O)NC(=O)C2CC(=O)N1CCc2ccccc2C1 (centres undefined),inactive: -2.04%
8,Cc1cc(C(=O)COC(=O)Cc2ccc(Cl)cc2)c(C)n1C,inactive: -5.98%
9,CCOC(=O)c1c(C)c(C)n(Cc2ccc(OC)c(OC)c2)c1C,inactive: 15.9%
10,Cc1ccc(NC(=O)Cn2nc(-c3ccccc3)nc2-c2ccccc2)c(C)c1,inactive: 18.2%
11,COc1ccc(/C=N/N=C2/NC(=O)C(CC(=O)O)S2)cc1OS(=O)(=O)c1ccccc1 (centres undefined),inactive: -5.71%
12,COc1ccc(CNC(=O)CS(=O)CC(=O)O)cc1OC (centres undefined),inactive: -9.31%
13,O=C(N/N=C/c1ccc2c(c1)OCO2)c1ccc(Cl)cc1Cl,inactive: 14.6%
14,COc1cc(/C=N/NC(=O)c2ccc(C)nc2)cc([N+](=O)[O-])c1O,inactive: -19.6%
15,Cc1[nH]c2ccccc2c(=O)c1CN1CCCCCC1,inactive: -4.58%
16,CCOc1ccccc1C(=O)Nc1cc(-c2nc3cccnc3s2)ccc1C,inactive: 5.28%
17,Cc1ccc(NC(=O)COC(=O)c2cccnc2)cc1,inactive: -1.98%
18,Cc1ccc2nc(NC(=O)CN3CCN(c4ccccn4)CC3)sc2c1,inactive: -2.11%
19,CNc1ccccc1C(C)(C)c1cc(-c2cccc([N+](=O)[O-])c2)no1,inactive: 21.4%
20,CCc1nn(CC(=O)NCCN2CCN(C)CC2)c(=O)c2cc3occc3n12,inactive: 19.6%
21,CCOc1ccc(N2CC(C(=O)NCCc3ccc(S(N)(=O)=O)cc3)CC2=O)cc1 (centres undefined),inactive: -5.68%
22,COc1ccc(C(=O)Nc2ccc(C3=NNC(=O)CC3C)cc2NC(=O)c2ccc(OC)cc2)cc1 (centres undefined),inactive: 16.2%
23,N#Cc1ccc(OC(=O)c2cnccn2)cc1,inactive: -5.36%
